Assay results from PubChem BioAssay (NCI).
Values joined by “and” are separate entries in the source; they are usually repeats but may differ in a detail not shown here. Equal entries are not always repeated.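 Step 1: Grow cells in 96-well plates. Step 2: Expose to compound for 48 hours at 5 concentrations. Step 3: Interpolate endpoints linearly; if unreached, use highest concentration. GI50 = concentration required for 50% inhibition of growth. TGI: concentration producing complete growth inhibition.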 Active and inactive are the calls of the source. Cut-off read from the data, not from the text of the source: active = GI50 below about 0.43 µM; inactive = the rest. Numbered stars: 1 amine (or outer) side, 2 acyl side, 3 side chain; on linkers, the order of the positions; unused ones are H or OH. Square brackets hold non-standard residues; d marks the D form. Peptide text beside a SMILES is read from it. * marks the point of attachment. ξ: configuration not given here. X49 = CC(C)C[C@H](N[*:1])C1=N[C@H](C(=O)[*:2])CS1; Ile(3ξ) = CCC(C)[C@H](N)C(=O)O; Allyl(1,1-Me2) = C=CC(C)(C)*

System: NCI-H322M lung
Test: growth of human tumour cells (NCI), 48 h

COc1cc2c(c(OC)c1OC)CCNC2C1=C(O)COC1=O (stereo not given)
TGI: > 100 µM

Clc1ccc(N=C2c3ccccc3CN2c2ccc(Cl)cc2)cc1
TGI: > 100 µM

C1CSC2=C(S1)SC1=C(S2)SC(=C2SC3=C(SC4=C(SCCS4)S3)S2)S1
TGI: > 100 µM

COC(=O)[C@@H]1CCc2nc3ccccc3c(=O)n21
TGI: > 100 µM

C(=N\c1cc2cc(Sc3ccccc3)ccc2[nH]1)/c1ccccc1
TGI: > 12.5 µM

O=[N+]([O-])c1ccc(NC(=S)N=Nc2c(O)[nH]c3ccccc23)cc1
TGI: 38.9 µM

CCCCN1C=CCN(CCCC)C1
GI50: > 100 µM
TGI: > 100 µM

Clc1ccc(-c2nc3ccc(Cl)cc3[nH]2)cc1
TGI: > 100 µM

CC(C)(C)[Si](C)(C)OC1(CCc2ccccc2OS(=O)(=O)C(F)(F)F)CCCC=C1COCc1ccccc1 (stereo not given)
TGI: > 100 µM

O=C(O)Cc1cc(F)ccc1C(=O)O
TGI: > 100 µM

C=C1C(O)C2C(=C(CC(C)C)C13CC3)C(=O)C(C)(C)C2O (stereo not given)
GI50: > 100 µM
TGI: > 100 µM

O=C1NC(=O)/C(=C/c2ccc3ncccc3c2)S1
GI50: 12.8 µM
TGI: > 25 µM

CN(C)c1nc2nonc2nc1Nc1ccccc1
TGI: > 100 µM

CC(CN(C)C)C(C#N)(c1ccccc1)c1ccccc1 (stereo not given)
TGI: > 100 µM

CC(=O)O[C@]1(C)CCC2C(C)C(=O)OC2C2C(C)[C@@H](O)CC21 (stereo not given in full)
TGI: > 100 µM

COc1cccc(-c2nc(-c3cnccn3)n(C3OC(CO)C(O)C3O)n2)c1 (stereo not given)
TGI: > 100 µM

O=C1c2ccccc2C(=O)N1[C@@H](Cc1ccccc1)C(=O)n1cccc1CO
TGI: > 100 µM

CCOC(=O)c1c(NNc2ccccc2)nc2ccccc2c1-c1ccccc1
TGI: > 100 µM

COC(=O)CCCC(=O)C1=Nc2ccccc2CN(c2ccc(Cl)cc2)N1
TGI: > 100 µM

COc1cc(/C=C/c2cc(/C=C/c3ccc(O)c(OC)c3)n(C(=O)Cc3ccccc3)n2)ccc1O
GI50: 1.68 µM
TGI: 10.1 µM

O=C1C(Cl)=C(Cl)C(Cl)(Cl)C(Cl)C1(Cl)Cl (stereo not given)
TGI: 43.5 µM

CN(C)/C=N/S(=O)(=O)c1nn2c(C=O)c(-c3ccccc3)nc2s1
TGI: > 80.3 µM

OCN(CO)c1ccc2c(c1)Cc1cc(F)ccc1-2
TGI: 41.1 µM

COc1cc(C=C2c3ccccc3C(=O)c3ccccc32)ccc1OCCCCOc1cc2c(cc1OC)C(=O)N1CCCC1C=N2 (stereo not given)
GI50: 0.945 µM
TGI: 2.31 µM

COc1ccccc1-c1cc(=O)c2c(C)cc(C)nc2[nH]1
TGI: > 100 µM

CC1(C)COC(c2ccccc2-c2ccccc2)=N1
TGI: > 100 µM

C#CCCOC(=O)CC1=C(C)/C(=C/c2ccc(S(C)=O)cc2)c2ccc(F)cc21 (stereo not given)
TGI: 37.5 µM

CCC(=O)OCC1OC(n2cnc3c(=S)nc(N)[nH]c32)C(OC(=O)CC)C1OC(=O)CC (stereo not given)
GI50: 25.8 µM
TGI: > 100 µM

CSc1ccc(C2=NN(c3ccccc3)C(c3ccc(-c4cc(Cl)c(Cl)cc4Cl)o3)C2)cc1 (stereo not given)
GI50: > 100 µM
TGI: > 100 µM

CCOC(=O)CCC(C(=O)OCC)n1nc2ccc(Nc3c(C)[n+]([O-])c4ccc(Cl)cc4[n+]3[O-])cc2n1 (stereo not given)
TGI: > 100 µM

C=CCOC1=C(OC(C)=O)C(=O)OC1C1COC(C)(C)O1 (stereo not given)
TGI: > 100 µM

CC[C@H]1CC(=O)c2c(cc3c(c2O)C(=O)c2ccccc2C3=O)[C@@]1(C#N)C(=O)OC(C)(C)C
TGI: 20.6 µM

CN(c1ccc(Cl)c(Cl)c1)c1cnc2cc(N)cc(N)c2n1
GI50: 4.9 µM
TGI: 16.2 µM

Cc1ccc(S(=O)(=O)N/N=C2/C3CCC(C3)C2c2ccccc2)cc1 (stereo not given)
TGI: > 100 µM

Cc1cccc(/C=N/NC(=S)Nc2ccc(Cl)cc2)n1
TGI: 32.1 µM

O=C(C(=O)c1cc(-c2ccccc2)nc2ccc3ccccc3c12)c1ccccc1
TGI: > 100 µM

Cn1cc(-c2csc(-c3c[nH]c4ccc(F)cc34)n2)c2cccnc21
GI50: 8.82 µM
TGI: > 100 µM

c1ccc(COC2NCCN2Cc2ccccc2)cc1 (stereo not given)
TGI: > 100 µM

Cc1cc2c(cc1O)[nH]c1cc3c(cc12)C=CC(C)(C)O3
GI50: 13.1 µM
TGI: > 25 µM

COc1cc2c(Oc3ccc4[nH]c(C)cc4c3F)ncnc2cc1OCCCN1CCCC1
GI50: 4.99 µM
TGI: 17.6 µM

O=C(Nc1ccn(C2CCC(CO)O2)c(=O)n1)c1ccccc1 (stereo not given)
TGI: > 100 µM

CCOc1ccccc1/C=C(/C#N)C(N)=O
TGI: > 100 µM

COc1cc2c(cc1OCCCCCN1C(=O)c3cccc4cccc(c34)C1=O)N=C[C@@H]1CCCN1C2=O
TGI: 8.04 µM

NC(C/C=C/P(=O)(O)O)C(=O)O (stereo not given)
TGI: > 100 µM

Nc1nc(SCc2ccccc2)nc2[nH]ncc12
GI50: 15.4 µM
TGI: 29 µM

CC(=O)c1ccc(Nc2cc(-n3nnc4ccccc43)nc3ccccc23)cc1
GI50: 16.9 µM
TGI: 51.1 µM

O=S1(=O)OCCOS(=O)(=O)C1(I)I
TGI: 49 µM

COc1cc(/C=C2\CCC(C)(CN(C)C)C2=O)cc(OC)c1OC (stereo not given)
TGI: > 100 µM

CC1(C)OC(C(C)(C)O)C(C(C)(C)O)O1 (stereo not given)
TGI: > 100 µM

CCOC(=O)c1cc(C(=O)c2cc(OC)cc(OC)c2)n2nc(C)ccc12
GI50: 0.672 µM
TGI: > 100 µM

COc1ccc2nccc(/C=C/c3ccc(N(C)C)cc3)c2c1
TGI: > 10 µM

CC[C@@]1(O)C(=O)OCc2c1cc1n(c2=O)Cc2c-1nc1ccccc1c2/C=N/NC(=O)C[N+](C)(C)C
TGI: > 100 µM

CCC1(O)C(=O)OCc2c1cc1n(c2=O)Cc2cc3cc(OC)c(OC)cc3nc2-1 (stereo not given)
TGI: > 100 µM

CC(C)(C)c1ccc2c(c1)OP1(Oc3cccc4cccnc34)(O2)Oc2ccc(C(C)(C)C)cc2O1
TGI: > 51.1 µM

COc1ccc(P2(=S)OCCOP(=S)(c3ccc(OC)cc3)S2)cc1 (stereo not given)
TGI: > 100 µM

CCCCCCCCNC(=O)SCCCC
TGI: > 100 µM

CCn1cc(C(=O)O)c(=O)c2ccc(C)nc21
TGI: > 100 µM

CC1(C)C(=NNC(=S)NN)C(C)(C)C1=NNC(=S)NN
TGI: > 100 µM

CC(c1ccccc1)N1C(=O)CSC1=S (stereo not given)
GI50: 5.57 µM
TGI: > 44.1 µM

COc1ccc(NC2C(=O)C3(C)CCC2C3(C)C)cc1 (stereo not given)
TGI: > 100 µM

N#CC1=C(N)OC2=C(CCCc3ccc([N+](=O)[O-])cc32)C1c1ccccc1 (stereo not given)
TGI: 50.7 µM

CCOC(=O)CNC(=O)C(CSCC1C(=O)Nc2ccccc21)NC(=O)CCC(N)C(=O)OCC (stereo not given)
TGI: 18.7 µM

CO[C@H]1/C=C/[C@@](C)(O)/C=C/C(=O)O[C@H](C)[C@@H](C)CC/C=C/1C
GI50: 17.6 µM
TGI: 78.7 µM

O=C(c1ccc(Oc2ccccc2)cc1Cl)c1c[nH]c2ncnc(N[C@@H]3CC[C@@H](CO)OC3)c12
GI50: 0.75 µM
TGI: 5.28 µM

O=C1c2ccc3c4ccc5c6c(ccc(c7ccc(c2c37)C(=O)N1CCN1CCCCC1)c64)C(=O)N(CCN1CCCCC1)C5=O
TGI: > 100 µM

C=CC(C)(C)OC[C@@H]1NC(=O)CNC(=O)[C@@H]2CCCN2C(=O)[C@H](C(C)CC)NC(=O)[C@@H]2CSC(=N2)[C@H](CC(C)C)NC1=O (stereo not given in full) (cyclo(GS(Allyl(1,1-Me2))[X49][Ile(3ξ)]P))
TGI: > 100 µM

O=c1[nH]cnc2c1ncn2C1CCC(CO)O1 (stereo not given)
GI50: > 1000 µM
TGI: > 1000 µM

CCc1cccc(C(C)CC)c1NC(=O)CC1C(=O)Nc2ccccc2S1(=O)=O (stereo not given)
TGI: 77.3 µM

C[Si](C)(C)CNC(=O)OCc1ccccc1
TGI: > 100 µM

CCOc1cc(NC(C)=O)ccc1C(=O)NNS(=O)(=O)c1ccc(Cl)cc1Cl
TGI: > 50 µM

NC(=O)C1CCCNC1 (stereo not given)
TGI: > 100 µM

O=c1cn[nH]c2nc3ccccc3n12
TGI: > 100 µM

O=C(O)C1(Nc2ccc(Cl)cc2)CCCC1
TGI: > 100 µM

CCOC(=O)NC(NCC(O)c1ccccc1)(C(F)(F)F)C(F)(F)F (stereo not given)
TGI: > 100 µM

CS(=O)(=O)OCOS(C)(=O)=O
TGI: > 100 µM

CCOC(=O)c1c(Sc2ccc([N+](=O)[O-])cc2[N+](=O)[O-])nc2c3ccccc3ccn12
TGI: > 100 µM

FC(F)(F)c1ccc2c(c1)nc(-c1ccccc1)n2CC1CCCN2CCCCC12 (stereo not given)
TGI: 59 µM

CCOC(=O)C(CC(C)C)NC(=O)C(Cc1ccc(N(CCCl)CCCl)cc1)NC(C)=O (stereo not given)
GI50: 17.4 µM
TGI: 35.7 µM and 40.2 µM

Cc1ccc(S(=O)(=O)OCC23CCC(C2)C2CC23)cc1 (stereo not given)
TGI: > 100 µM

CNc1ccccc1S(=O)(=O)c1ccccc1[N+](=O)[O-]
TGI: > 100 µM

C#CCN(Cc1cc2c(=O)[nH]c(C)nc2cc1C)c1ccc(C(=O)N[C@@H](CCc2nn[nH]n2)C(=O)O)c(F)c1
outcome: inactive

COc1cc(/C=C/[N+](=O)[O-])c([N+](=O)[O-])cc1OC
GI50: 10.7 µM
TGI: 22.5 µM

O=C(O)/C(=C/c1ccccc1)c1ccccc1
TGI: > 100 µM

CCCCN(CC)C(=O)C1=C(C)NC(C)=C(C(=O)N(CC)CCCC)C1
TGI: > 100 µM

Cc1ccc(O)c(-c2cc(-c3cccc(Br)c3)c(C#N)c(N)n2)c1
TGI: > 100 µM

CC1COC(c2cn[nH]c2C(N)=O)C1O (stereo not given)
TGI: > 100 µM

COc1cc(C2CC(c3ccc(SC)cc3)=NN2C(C)=O)cc(OC)c1OC (stereo not given)
GI50: 30.8 µM
TGI: > 100 µM

C#CC1(O)C(COP(=O)(O)OC(COCCCCCCCCCCCCCCCCCC)COP(=O)(O)OCC2OC(n3cc(C)c(=O)[nH]c3=O)CC2N=[N+]=[N-])OC(n2ccc(N)nc2=O)C1O (stereo not given)
TGI: > 19.8 µM

OCc1cc2c([nH]c3ccccc32)c(C(O)CO)n1 (stereo not given)
TGI: > 100 µM

O=[N+]([O-])c1cc([N+](=O)[O-])c(NN=C(c2ccc(O)cc2)c2ccc(O)cc2)cc1Cl
GI50: 1.94 µM
TGI: 4.56 µM

Nc1cnc(Nc2cccc3ccccc23)o1
TGI: > 10 µM

NC(N)=Nc1ccc(CC(N)C(=O)NCC(=O)C(CC(=O)O)c2ncc(NC(=O)C(F)(F)F)o2)cc1 (stereo not given)
TGI: > 25 µM

CC(=O)O[C@H]1CC[C@@]2(C)C(=CC[C@@H]3C2CC[C@]2(C)Nc4c(cnn4-c4ccccc4)CC32)C1 (stereo not given in full)
TGI: 27.1 µM

CCCCCCCCCCCCCCCCOCC(Cl)CP(=O)(O)OP(=O)(O)OCC1OC(n2cnc3c(N)ncnc32)C(O)C1O (stereo not given)
TGI: > 100 µM

Cc1ccc(NC(=O)c2ccc(CN3CC[C@H](N(C)C)C3)c(C(F)(F)F)c2)cc1Nc1nccc(-c2cncnc2)n1
GI50: 10.3 µM and > 10 µM
TGI: 27.8 µM and > 10 µM

NC(CCCCO)C(=O)O (stereo not given)
TGI: > 100 µM

Cc1cccc(NS(=O)(=O)c2ccc3c(c2)OCCOCCOCCOCCO3)c1
TGI: > 100 µM

[N-]=[N+]=CC(=O)OC1CCOCC1
TGI: > 100 µM

COc1cc2c3c(c1Oc1nnnn1-c1ccccc1)-c1c(ccc4c1OCO4)C[C@H]3N(C)CC2
TGI: > 100 µM

CC1=C(C)C(=O)C(C2=C(C3=CC(=O)C(C)=C(C)C3=O)C(=O)C(C)=C(C)C2=O)=CC1=O
TGI: 47.5 µM

CC(=O)N(C)C(C(=O)N1CC(C)CC1C(=O)N(C)C1C(=O)NC(CC(C)C)C(=O)N2CC(C)CC2C(=O)NC(CC(C)C)C(=O)N(C)C(C(C)C)C(=O)N2CCCC2C(=O)N(C)C(CC(C)C)C(=O)NCC(=O)OC1C)C(C)C (stereo not given)
TGI: > 100 µM

CCOC(=O)C1CSCCSC1
TGI: > 100 µM
